The values that follow come from patent US20200002439A1 (GENSUN BIOPHARMA, published 2020).

Like-named read-outs stand apart in the source and are kept apart here.

In one test the target is T1, recombinant human Ang2 (human, UniProt O15123 19-496).
T1 construct: also called Ang2 (R&D)
T1 sequence (looked up): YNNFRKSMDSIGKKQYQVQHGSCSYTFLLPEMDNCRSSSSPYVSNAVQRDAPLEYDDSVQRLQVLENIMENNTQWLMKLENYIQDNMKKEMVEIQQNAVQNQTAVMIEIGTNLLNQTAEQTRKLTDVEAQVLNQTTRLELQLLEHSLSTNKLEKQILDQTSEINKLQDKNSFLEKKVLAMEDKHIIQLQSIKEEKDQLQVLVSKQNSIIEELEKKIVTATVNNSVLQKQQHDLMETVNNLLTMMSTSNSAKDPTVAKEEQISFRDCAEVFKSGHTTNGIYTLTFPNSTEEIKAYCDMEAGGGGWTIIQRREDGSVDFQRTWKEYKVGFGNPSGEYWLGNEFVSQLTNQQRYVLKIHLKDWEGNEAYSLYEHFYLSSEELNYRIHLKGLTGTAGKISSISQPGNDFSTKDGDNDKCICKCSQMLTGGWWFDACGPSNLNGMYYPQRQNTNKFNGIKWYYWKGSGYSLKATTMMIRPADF
The test can be described thus: blocking ELISA: Ang2 coated on the plate, binding of recombinant human Tie2 is blocked. On the procedure: IC50 values were determined as the mid-point in the activity curve.

Test [1] concerns the target T2, recombinant human VEGF 165 (human, UniProt P15692-4 27-191).
T2 construct: Bought protein
T2 sequence (looked up): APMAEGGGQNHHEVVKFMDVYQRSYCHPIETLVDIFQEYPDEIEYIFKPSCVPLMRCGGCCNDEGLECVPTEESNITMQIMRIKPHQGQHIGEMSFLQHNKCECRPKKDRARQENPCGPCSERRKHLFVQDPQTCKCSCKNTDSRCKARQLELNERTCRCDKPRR
The test can be described thus: blocking ELISA: VEGF 165 coated on the plate, binding of recombinant human VEGFR-2 is blocked. The protocol: (§1) In brief, 96-well assay plates were coated with 0.5 ug/ml of recombinant human VEGF 165 (R&D) in carbonate-bicarbonate buffer (pH 9.6) at 4° C. overnight followed by blocking with 1% BSA/PBS for 1 hour at room temperature. Serially diluted antibodies were then added to the plate and incubated for 30 minutes at room temperature. […] Followed by washing with Wash Buffer, goat anti-mouse IgG-HRP were added to the plate and incubated for 1 hour at room temperature. […] IC50 values were determined as the mid-point in the activity curve.

Test [2] addresses T2, recombinant human VEGF 165. The description is as above. On the procedure: as §1
This is another data set of the same source.

Test [3] addresses T3, human PD-1 on transfected CHO-K1 cells (human, UniProt Q15116 25-288).
T3 construct: also called Human PD-1 transfected CHO-K1 cells
The test can be described thus: cell-based blocking assay, flow cytometry: binding of FITC labeled human PD-L1-Fc to human PD-1 transfected CHO-K1 cells is blocked.

Test [4] has as its target T3, human PD-1 on transfected CHO-K1 cells. Described as above. The source holds these as a separate data set.
The target of test [5] is T2, recombinant human VEGF 165. The test can be described thus: cell-based or functional assay.
The next test addresses human TGFβ1 (human, UniProt P01137 fragment). The test can be described thus: cell-based or functional assay.

T3 sequence (Q15116 25-288 limits assumed): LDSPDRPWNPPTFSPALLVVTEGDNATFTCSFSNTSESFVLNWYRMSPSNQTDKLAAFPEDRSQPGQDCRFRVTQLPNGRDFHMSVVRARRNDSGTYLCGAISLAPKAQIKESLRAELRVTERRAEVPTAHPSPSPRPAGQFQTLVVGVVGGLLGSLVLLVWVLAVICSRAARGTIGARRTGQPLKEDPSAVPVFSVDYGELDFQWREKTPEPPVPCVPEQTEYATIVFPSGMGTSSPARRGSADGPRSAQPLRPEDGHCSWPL
Sequence of human TGFβ1 (P01137 279-390 limits assumed): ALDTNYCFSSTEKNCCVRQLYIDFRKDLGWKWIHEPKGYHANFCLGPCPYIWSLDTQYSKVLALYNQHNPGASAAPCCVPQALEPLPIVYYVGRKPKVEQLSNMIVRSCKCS

B1: TS-ZPT-2(2P16) (other)
chain 1: QVQLVQSGAEVKKPGASVKVSCKASGYTFTTYYIYWVRQAPGQGLEWMGGINPGNGGTNFNEKFKIRVTMTRDTSISTAYMELSSLRSEDTAVYYCARRYHGYDGGLDYWGQGTLVTVSSASTKGPSVFPLAPCSRSTSESTAALGCLVKDYFPEPVTVSWNSGALTSGVHTFPAVLQSSGLYSLSSVVTVPSSSLGTKTYTCNVDHKPSNTKVDKRV[human IgG4 Fc with S228P (EU numbers) left out]GGGGGAQQEECEWDPWTCEHMGSGSATGGSGSTASSGSGSATHQEECEWDPWTCEHMLEGGGGSGGGGSGGGGSSDTGRPFVEMYSEIPEIIHMTEGRELVIPCRVTSPNITVTLKKFPLDTLIPDGKRIIWDSRKGFIISNATYKEIGLLTCEATVNGHLYKTNYLTHRQTNTIIDVVLSPSHGIELSVGEKLVLNCTARTELNVGIDFNWEYPSSKHQHKKLVNRDLKTQSGSEMKKFLSTLTIDGVTRSDQGLYTCAASSGLMTKKNSTFVRVHEK
chain 2: DIVLTQSPASLAVSPGQRATITCRASKSVSTSGFSYIHWYQQKPGQPPKLLIYLASNLESGVPARFSGSGSGTDFTLTINPVEANDTANYYCQHTWELPNTFGGGTKVEIKRTVAAPSVFIFPPSDEQLKSGTASVVCLLNNFYPREAKVQWKVDNALQSGNSQESVTEQDSKDSTYSLSSTLTLSKADYEKHKVYACEVTHQGLSSPVTKSFNRGEC
Turning to B1, the IC50 was 0.65 nM in the test with recombinant human Ang2, 0.11 nM in test [1], 0.17 nM in test [2] and 4.62 nM in test [3].

B2: TS-ZPT-5(2P16) (other)
heavy: QVQLVQSGAEVKKPGASVKVSCKASGYTFTTYYIYWVRQAPGQGLEWMGGINPGNGGTNFNEKFKIRVTMTRDTSISTAYMELSSLRSEDTAVYYCARRYHGYDGGLDYWGQGTLVTVSSASTKGPSVFPLAPCSRSTSESTAALGCLVKDYFPEPVTVSWNSGALTSGVHTFPAVLQSSGLYSLSSVVTVPSSSLGTKTYTCNVDHKPSNTKVDKRV[human IgG4 Fc with S228P (EU numbers) left out]GGGGSGGGGSGGGGSSDTGRPFVEMYSEIPEIIHMTEGRELVIPCRVTSPNITVTLKKFPLDTLIPDGKRIIWDSRKGFIISNATYKEIGLLTCEATVNGHLYKTNYLTHRQTNTIIDVVLSPSHGIELSVGEKLVLNCTARTELNVGIDFNWEYPSSKHQHKKLVNRDLKTQSGSEMKKFLSTLTIDGVTRSDQGLYTCAASSGLMTKKNSTFVRVHEKGGGGGAQQEECEWDPWTCEHMGSGSATGGSGSTASSGSGSATHQEECEWDPWTCEHMLE
light: B1 chain 2
Consider B2, for which the IC50 turned out to be 0.4 nM with recombinant human Ang2, 0.26 nM in test [1], 1.78 nM in test [2] and 1.3 nM in test [4].

B3: TS-ZPB-5B (other)
heavy: QVQLVQSGAEVKKPGASVKVSCKASGYTFTSYYIHWVRQAPGQGLEWMGWIFPGSGNSKYNENFKGRVTLTADTSTSTVYMELSSLRSEDTAVYYCASETYDYGDYWGQGTLVTVSSASTKGPSVFPLAPCSRSTSESTAALGCLVKDYFPEPVTVSWNSGALTSGVHTFPAVLQSSGLYSLSSVVTVPSSSLGTKTYTCNVDHKPSNTKVDKRV[human IgG4 Fc with S228P (EU numbers) left out]AGGGGSGGGGSGGGGSSDTGRPFVEMYSEIPEIIHMTEGRELVIPCRVTSPEITVTLKKFPLDTLIPDGKRIIWDSRKGFIISEATYKEIGLLTCEATVNGHLYKTNYLTHRQTNTIIDVVLSPSHGIELSVGEKLVLECTARTELNVGIDFNWEYPSSKHQHKKLVNRDLKTQSGSEMKKFLSTLTIDGVTRSDQGLYTCAASSGLMTKKESTFVRVHEKGGGGSGGGGSGGGGSIPPHVQKSVNNDMIVTDNNGAVKFPQLCKFCDVRFSTCDNQKSCMSNCSITSICEKPQEVCVAVWRKNDENITLETVCHDPKLPYHDFILEDAASPKCIMKEKKKPGETFFMCSCSSDECNDNIIFSEEYNTSNPD
light: DIQMTQSPSFLSASVGDRVTITCKASQNVGTNVAWYQQKPGKAPKALIYSASYRYSGVPSRFSGSGSGTEFTLTISSLQPEDFATYYCQQYYSYPYTFGQGTKLEIKRTVAAPSVFIFPPSDEQLKSGTASVVCLLNNFYPREAKVQWKVDNALQSGNSQESVTEQDSKDSTYSLSSTLTLSKADYEKHKVYACEVTHQGLSSPVTKSFNRGEC
For B3, the “IC50 (read off the curve); luciferase signal of the cell-based VEGF/VEGFR-2 assay” value in test [5] was roughly 0.02 nM. The “IC50 (read off the curve); luciferase signal of the TGFβ signaling reporter assay” value with human TGFβ1 is roughly 0.05 nM.

B4: TS-ZPB-5A (other)
heavy: QVQLVQSGAEVKKPGASVKVSCKASGYTFTSYYIHWVRQAPGQGLEWMGWIFPGSGNSKYNENFKGRVTLTADTSTSTVYMELSSLRSEDTAVYYCASETYDYGDYWGQGTLVTVSSASTKGPSVFPLAPCSRSTSESTAALGCLVKDYFPEPVTVSWNSGALTSGVHTFPAVLQSSGLYSLSSVVTVPSSSLGTKTYTCNVDHKPSNTKVDKRV[human IgG4 Fc with S228P (EU numbers) left out]AGGGGSGGGGSGGGGSSDTGRPFVEMYSEIPEIIHMTEGRELVIPCRVTSPNITVTLKKFPLDTLIPDGKRIIWDSRKGFIISNATYKEIGLLTCEATVNGHLYKTNYLTHRQTNTIIDVVLSPSHGIELSVGEKLVLNCTARTELNVGIDFNWEYPSSKHQHKKLVNRDLKTQSGSEMKKFLSTLTIDGVTRSDQGLYTCAASSGLMTKKNSTFVRVHEKGGGGSGGGGSGGGGSIPPHVQKSVNNDMIVTDNNGAVKFPQLCKFCDVRFSTCDNQKSCMSNCSITSICEKPQEVCVAVWRKNDENITLETVCHDPKLPYHDFILEDAASPKCIMKEKKKPGETFFMCSCSSDECNDNIIFSEEYNTSNPD
light: B3 light
On to B4, for which, in test [5], the “IC50 (read off the curve); luciferase signal of the cell-based VEGF/VEGFR-2 assay” value was roughly 0.02 nM. In the test with human TGFβ1, the “IC50 (read off the curve); luciferase signal of the TGFβ signaling reporter assay” value was roughly 0.07 nM.
